Test results taken from a collection of fitness landscapes (doi:10.1126/science.1257360).
The list shows a part of the results.

B1: PhoQ; a variant is named by its letters at X, in order, P23837 (parent)
chain: MKKLLRLFFPLSLRVRFLLATAAVVLVLSLAYGMVALIGYSVSFDKTTFRLLRGESNLFYTLAKWENNKLHVELPENIDKQSPTMTLIYDENGQLLWAQRDVPWLMKMIQPDWLKSNGFHEIEADVNDTSLLLSGDHSIQQQLQEVREDDDDAEMTHSVAVNVYPATSRMPKLTIVVVDTIPVELKSSYMVWSWFIYVLSANLLLVIPLLWVAAWWSLRPIEALAKEVRELEEHNRELLNPATTRELTSLVRNLNRLLKSERERYDKYRTTLTDLTHSLKTPLXXLQXXLRSLRSEKMSVSDAEPVMLEQISRISQQIGYYLHRASMRGGTLLSRELHPVAPLLDNLTSALNKVYQRKGVNISLDISPEISFVGEQNDFVEVMGNVLDNACKYCLEFVEISARQTDEHLYIVVEDDGPGIPLSKREVIFDRGQRVDTLRPGQGVGLAVAREITEQYEGKIVAGESMLGGARMEVIFGRQHSAPKDE

Variants of: B1
Test: enrichment ratio after two sorts for PhoP signalling (ratio (wild type AVST 3.29)); higher = more functional
Settings: with PhoP (E. coli)

Point of comparison: SAYI, enrichment ratio 0.312. Against it:
- NSCC — lower, ≤ 0.25
- FDSM — lower, ≤ 0.25
- QMGD — lower, ≤ 0.25
- MIYN — higher, 9.42
- DEGI — lower, ≤ 0.25
- NQFN — lower, ≤ 0.25
- QSFA — higher, 2.36
- PFSA — lower, ≤ 0.25
- HYQR — lower, ≤ 0.25
- INGE — lower, ≤ 0.25
- SIPG — lower, ≤ 0.25
- TVGG — higher, 16.2
- NRSH — lower, ≤ 0.25
- YARN — lower, ≤ 0.25
- VGNG — lower, ≤ 0.25
- NSKL — lower, ≤ 0.25
- RTSD — lower, ≤ 0.25
- INQW — lower, ≤ 0.25
- WLHH — lower, ≤ 0.25
- ANAT — higher, 17.7
- SISE — higher, 12.6
- NRSK — lower, ≤ 0.25
- FKVS — lower, ≤ 0.25
- SMEI — lower, ≤ 0.25
- FFSF — lower, ≤ 0.25
- QDFE — lower, ≤ 0.25
- RKDK — lower, ≤ 0.25
- YCPK — lower, ≤ 0.25
- TQQT — higher, 6.08
- LIYA — lower, ≤ 0.25
- HSCV — higher, 0.501
- CLIS — lower, ≤ 0.25
- HSAK — lower, ≤ 0.25
- GSRP — lower, ≤ 0.25
- FFQG — lower, ≤ 0.25
- YAIP — lower, ≤ 0.25
- PAHI — lower, ≤ 0.25
- NTMH — lower, ≤ 0.25
- MVMR — lower, ≤ 0.25
- KSST — lower, ≤ 0.25
- LKWN — lower, ≤ 0.25
- REVG — lower, ≤ 0.25
- PVWQ — lower, ≤ 0.25
- VRIH — lower, ≤ 0.25
- MYEF — lower, ≤ 0.25
- KFDM — lower, ≤ 0.25
- WWVW — lower, ≤ 0.25
- SELY — higher, 11.4
- TNSN — higher, 10.4
- FDCS — lower, ≤ 0.25
- RFGF — lower, ≤ 0.25
- KMTG — lower, ≤ 0.25
- ANQG — lower, ≤ 0.25
- QSCM — higher, 3.65
- EDML — lower, ≤ 0.25
- RKFE — lower, ≤ 0.25
- IWMV — lower, ≤ 0.25
- RRGH — lower, ≤ 0.25
- DYHP — lower, ≤ 0.25
- YTKV — lower, ≤ 0.25
- DRKP — lower, ≤ 0.25
- QKRC — lower, ≤ 0.25
- QRAK — lower, ≤ 0.25
- PGIM — lower, ≤ 0.25
- RMGT — lower, ≤ 0.25
- SSRI — lower, ≤ 0.25
- MTAA — lower, ≤ 0.25
- TLEN — higher, 3.73
- DHNG — lower, ≤ 0.25
- FHGA — lower, ≤ 0.25
- VSGQ — lower, ≤ 0.25
- FGER — lower, ≤ 0.25
- GVAP — lower, ≤ 0.25
- FHYN — lower, ≤ 0.25
- ESWY — lower, ≤ 0.25
- PGLL — lower, ≤ 0.25
- ISWM — lower, ≤ 0.25
- GVRH — lower, ≤ 0.25
- DRQL — lower, ≤ 0.25
- HRLK — lower, ≤ 0.25
- GQDR — lower, ≤ 0.25
- VHKQ — lower, ≤ 0.25
- NEVS — higher, 0.873
